Reference: patent publication US11254690B2, “PTEFb inhibiting macrocyclic compounds” (BAYER AKTIENGESELLSCHAFT, priority 2017, dated 2022)

Biological target: T1, human PTEFb (CDK9/Cyclin T1) (Homo sapiens, UniProt P50750)
T1 construct: purchased ProQinase, Freiburg, Germany
Experiment: Surface Plasmon Resonance PTEFb
Type: binding
Conditions: SPR, 37° C.; * = arithmetic means of more than one value; read-out: Equilibrium dissociation constant KD
Excerpt: 8. Surface Plasmon Resonance PTEFb
The term “surface plasmon resonance”, as used herein, refers to an optical phenomenon that allows for the analysis of the reversible associations of biological molecules in real time within a biosensor matrix, for example using the Biacore® system (GE Healthcare Biosciences, Uppsala, Sweden). Biacore® uses the optical properties of surface plasmon resonance (SPR) to detect alterations in the refractive index of a buffer, which changes as molecules in solution interact with the target immobilized on the surface. In brief, proteins are covalently bound to the dextran matrix at a known concentration and a ligand for the protein is injected through the dextran matrix. […] This angle shift can be measured. […]
The ability of the compounds according to the invention to bind human PTEFb may be determined using surface plasmon resonance (SPR). KD values and koff values may be measured using a Biacore® T200 instrument (GE Healthcare, Uppsala, Sweden).
For SPR measurements, recombinant human PTEFb (CDK9/Cyclin T1 recombinant human active protein kinase purchased from ProQinase, Freiburg, Germany) is immobilized using standard amine coupling (Johnsson B et al, Anal Biochem. 1991 Nov. 1; 198(2):268-77). […] Binding kinetics is measured at 37° C. with a flow rate of 100 μl/min in running buffer. […]

T1 sequence (P50750 whole entry): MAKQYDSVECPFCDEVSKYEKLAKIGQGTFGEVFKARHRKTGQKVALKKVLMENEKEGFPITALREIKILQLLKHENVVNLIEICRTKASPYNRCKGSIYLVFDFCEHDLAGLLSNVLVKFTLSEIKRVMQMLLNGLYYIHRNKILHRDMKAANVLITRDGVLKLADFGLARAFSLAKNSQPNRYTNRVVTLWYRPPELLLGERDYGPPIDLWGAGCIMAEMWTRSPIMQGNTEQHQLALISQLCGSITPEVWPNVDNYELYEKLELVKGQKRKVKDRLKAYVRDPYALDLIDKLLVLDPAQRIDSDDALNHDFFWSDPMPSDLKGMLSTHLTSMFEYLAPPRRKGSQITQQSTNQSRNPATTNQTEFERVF
T1 sequence (O60563 whole entry partner): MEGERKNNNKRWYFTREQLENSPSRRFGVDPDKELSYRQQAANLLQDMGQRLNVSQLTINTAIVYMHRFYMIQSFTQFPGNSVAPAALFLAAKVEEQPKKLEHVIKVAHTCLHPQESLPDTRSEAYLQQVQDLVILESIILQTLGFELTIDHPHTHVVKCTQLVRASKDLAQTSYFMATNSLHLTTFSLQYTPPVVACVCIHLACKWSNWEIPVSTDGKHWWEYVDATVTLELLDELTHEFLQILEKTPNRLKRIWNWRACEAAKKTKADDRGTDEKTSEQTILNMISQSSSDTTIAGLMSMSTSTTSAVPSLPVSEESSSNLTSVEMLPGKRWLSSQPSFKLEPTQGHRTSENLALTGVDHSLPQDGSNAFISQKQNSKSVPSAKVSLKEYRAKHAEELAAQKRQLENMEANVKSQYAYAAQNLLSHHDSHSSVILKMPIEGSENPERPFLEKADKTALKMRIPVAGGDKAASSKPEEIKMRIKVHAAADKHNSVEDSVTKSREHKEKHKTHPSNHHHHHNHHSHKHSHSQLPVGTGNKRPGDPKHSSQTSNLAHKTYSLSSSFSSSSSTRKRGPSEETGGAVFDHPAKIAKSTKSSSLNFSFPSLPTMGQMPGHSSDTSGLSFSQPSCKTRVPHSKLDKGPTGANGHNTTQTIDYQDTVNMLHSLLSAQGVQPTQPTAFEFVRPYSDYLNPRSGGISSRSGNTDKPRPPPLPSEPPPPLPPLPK

- Kd: 0.28, 0.066, 0.024, 0.029 nM [one cell]
Compound: CC1CCCOc2cc(ccc2F)-c2cc(ncc2F)Nc2cc(CS(C)(=N)=O)cc(n2)O1 (single isomer, unassigned) [Example 16, 3,20-difluoro-14-methyl-10-[(S-methylsulfonimidoyl)methyl]-13,18-dioxa-5,7,24-triazatetracyclo[17.3.1.1^2,6.1^8,12]pentacosa-1(23),2(25),3,5,8(24),9,11,19,21-nonaene]

Not every entry of the source has a single result; some have several. This list holds those alone. An entry can have further records. Results that share an entry appear to be repeats (runs, samples, wells or individuals); one of them may be the mean.
